# Assay results from the supplement of paper PMC10037445.
# Whole data set: some 2,900 compounds, median “IRF Lucia reporter activity, fold change vs agonist alone” near 0.9, cut for the highest 2% near 2.8. The list shows a part of the results.
# What was measured:
# RAW-Dual [1] = test: IRF Lucia reporter activity, fold change vs agonist alone; cytotoxicity flag (confluency mask): not cytotoxic; higher = enhanced IRF activity
# In short: (§1)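 Library stock was pin-tooled at 50 nL into 384-well plates of RAW-Dual macrophages (50,000 cells/well, DMEM), followed 1 h later by a PRR agonist, and the cells were kept at 37 °C, 5% CO2. Supernatant collected after 20 hours was read for IRF by QuantiLuc luminescence and for NF-κB by QuantiBlue absorbance at 620 nm. Reporter activity is fold change over agonist-alone wells, and a well counted as cytotoxic when its IncuCyte confluency was below 70% of agonist controls in both mask sets.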
# RAW-Dual [2] = test: IRF Lucia reporter activity, fold change vs agonist alone; higher = enhanced IRF activity; conditions: agonist: MPLA (TLR4) […]
# In short: as §1
# RAW-Dual [3] = test: IRF Lucia reporter activity, fold change vs agonist alone; cytotoxicity flag (confluency mask): cytotoxic (confluency <70% of control); higher = enhanced IRF activity
# In short: as §1
# [4] = agonist: 3'3'-cGAMP (STING) 10 ug/mL
# [5] = library stock concentration (final ~1000-fold dilution): 10 mM, cytotoxicity flag (confluency mask): not cytotoxic
compound,measurement,setting,value
COc1ccc(Cc2cnc(N)nc2N)cc1OC (library stock concentration (final ~1000-fold dilution): 10 mM),IRF Lucia reporter activity,RAW-Dual [1]; [4],1.12
same,IRF Lucia reporter activity,RAW-Dual [1]; agonist: LPS (TLR4) 0.1 ug/mL,1.01
COc1ccc(Cc2cnc(N)nc2N)cc1OC,IRF Lucia reporter activity,RAW-Dual [2]; [5],1.1
C[C@@H](O)CCOC(=O)C[C@@H](C)O (library stock concentration (final ~1000-fold dilution): 10 mM),IRF Lucia reporter activity,RAW-Dual [1]; [4],0.761
same,IRF Lucia reporter activity,RAW-Dual [1]; agonist: LPS (TLR4) 0.1 ug/mL,0.967
Cc1cc(C)cc(Oc2ccc(CNC(=O)C(C)N)cc2C)c1 (stereo unspecified) (library stock concentration (final ~1000-fold dilution): 10 mM),IRF Lucia reporter activity,RAW-Dual [1]; [4],0.332
same,IRF Lucia reporter activity,RAW-Dual [1]; agonist: LPS (TLR4) 0.1 ug/mL,1.75
CC1(COc2ccc3c(c2)ncn3-c2ccc3cccc(N4CCC(N)CC4)c3n2)COC1 (library stock concentration (final ~1000-fold dilution): 10 mM),IRF Lucia reporter activity,RAW-Dual [3]; [4],0.0398
same,IRF Lucia reporter activity,RAW-Dual [3]; agonist: LPS (TLR4) 0.1 ug/mL,0.0341
CC1(COc2ccc3c(c2)ncn3-c2ccc3cccc(N4CCC(N)CC4)c3n2)COC1,IRF Lucia reporter activity,"RAW-Dual [2]; library stock concentration (final ~1000-fold dilution): 10 mM, cytotoxicity flag (confluency mask): cytotoxic (confluency <70% of control)",0.0613
COc1ccccc1-c1cc(Nc2cccc(CS(N)(=O)=O)c2)ncn1,IRF Lucia reporter activity,RAW-Dual [2]; [5],0.162
COc1ccccc1-c1cc(Nc2cccc(CS(N)(=O)=O)c2)ncn1 (library stock concentration (final ~1000-fold dilution): 10 mM),IRF Lucia reporter activity,RAW-Dual [1]; [4],0.137
same,IRF Lucia reporter activity,RAW-Dual [1]; agonist: LPS (TLR4) 0.1 ug/mL,0.158
O=C(O)CCc1c[nH]c2ccccc12 (library stock concentration (final ~1000-fold dilution): 10 mM),IRF Lucia reporter activity,RAW-Dual [1]; [4],0.921
same,IRF Lucia reporter activity,RAW-Dual [1]; agonist: LPS (TLR4) 0.1 ug/mL,1.18
Cl.Nc1ccc(Cl)cc1C(=O)C(F)(F)F (library stock concentration (final ~1000-fold dilution): 10 mM),IRF Lucia reporter activity,RAW-Dual [1]; [4],0.946
same,IRF Lucia reporter activity,RAW-Dual [1]; agonist: LPS (TLR4) 0.1 ug/mL,1.33
Cl.Nc1ccc(Cl)cc1C(=O)C(F)(F)F,IRF Lucia reporter activity,RAW-Dual [2]; [5],1.22
COc1ccc(S(=O)(=O)Nc2nc(-c3cccc([N+](=O)[O-])c3)cs2)cc1OC (library stock concentration (final ~1000-fold dilution): 10 mM),IRF Lucia reporter activity,RAW-Dual [1]; [4],0.993
same,IRF Lucia reporter activity,RAW-Dual [1]; agonist: LPS (TLR4) 0.1 ug/mL,1.12
COc1cc2c(cc1OC)C(=O)C(CC1CCN(Cc3ccccc3)CC1)C2 (stereo unspecified) (library stock concentration (final ~1000-fold dilution): 10 mM),IRF Lucia reporter activity,RAW-Dual [1]; [4],0.99
same,IRF Lucia reporter activity,RAW-Dual [1]; agonist: LPS (TLR4) 0.1 ug/mL,0.929
COc1cc2c(cc1OC)C(=O)C(CC1CCN(Cc3ccccc3)CC1)C2 (stereo unspecified),IRF Lucia reporter activity,RAW-Dual [2]; [5],0.76
Cc1cc(N2CCCCC2)nc2ccccc12 (library stock concentration (final ~1000-fold dilution): 10 mM),IRF Lucia reporter activity,RAW-Dual [1]; [4],1.28
same,IRF Lucia reporter activity,RAW-Dual [1]; agonist: LPS (TLR4) 0.1 ug/mL,1.3
CCOc1ccc(Cc2cc(C3OC(SC)C(O)C(O)C3O)ccc2Cl)cc1 (stereo unspecified) (library stock concentration (final ~1000-fold dilution): 10 mM),IRF Lucia reporter activity,RAW-Dual [1]; [4],1.38
same,IRF Lucia reporter activity,RAW-Dual [1]; agonist: LPS (TLR4) 0.1 ug/mL,1.12
COc1cc(-c2ccc(N=Nc3ccc4c(S(=O)(=O)O)cc(S(=O)(=O)O)c(N)c4c3O)c(OC)c2)ccc1N=Nc1ccc2c(S(=O)(=O)O)cc(S(=O)(=O)O)c(N)c2c1O (library stock concentration (final ~1000-fold dilution): 10 mM),IRF Lucia reporter activity,RAW-Dual [1]; [4],0.774
same,IRF Lucia reporter activity,RAW-Dual [1]; agonist: LPS (TLR4) 0.1 ug/mL,0.608
COc1cc(-c2ccc(N=Nc3ccc4c(S(=O)(=O)O)cc(S(=O)(=O)O)c(N)c4c3O)c(OC)c2)ccc1N=Nc1ccc2c(S(=O)(=O)O)cc(S(=O)(=O)O)c(N)c2c1O,IRF Lucia reporter activity,RAW-Dual [2]; [5],0.828
CCN(CC)CCCC(C)Nc1nc(C)cc(Nc2ccc3nc(C)cc(N)c3c2)n1.Cl.Cl.Cl (stereo unspecified) (library stock concentration (final ~1000-fold dilution): 10 mM),IRF Lucia reporter activity,RAW-Dual [1]; [4],1.33
same,IRF Lucia reporter activity,RAW-Dual [1]; agonist: LPS (TLR4) 0.1 ug/mL,1.31
Cl.N=C(N)NCCCCC(N)C(=O)O (stereo unspecified) (library stock concentration (final ~1000-fold dilution): 10 mM water),IRF Lucia reporter activity,RAW-Dual [1]; [4],1.35
same,IRF Lucia reporter activity,RAW-Dual [1]; agonist: LPS (TLR4) 0.1 ug/mL,1.02
Cl.N=C(N)NCCCCC(N)C(=O)O (stereo unspecified),IRF Lucia reporter activity,"RAW-Dual [2]; library stock concentration (final ~1000-fold dilution): 10 mM water, cytotoxicity flag (confluency mask): not cytotoxic",1.29
CC(C(=O)Nc1ccc(Cl)cc1)C1CCC(c2ccnc3ccc(F)cc23)CC1 (stereo unspecified) (library stock concentration (final ~1000-fold dilution): 10 mM),IRF Lucia reporter activity,RAW-Dual [1]; [4],0.225
same,IRF Lucia reporter activity,RAW-Dual [1]; agonist: LPS (TLR4) 0.1 ug/mL,0.289
COc1cc2c(cc1OC)CN(CCc1ccc(NC(=O)c3cc(OC)c(OC)cc3NC(=O)c3cnc4ccccc4c3)cc1)CC2 (library stock concentration (final ~1000-fold dilution): 10 mM),IRF Lucia reporter activity,RAW-Dual [1]; [4],1.1
same,IRF Lucia reporter activity,RAW-Dual [1]; agonist: LPS (TLR4) 0.1 ug/mL,1.23
COc1ccc(S(=O)(=O)NCc2ccc(C(=O)NCCc3ccc(Cl)cn3)cc2)cc1 (library stock concentration (final ~1000-fold dilution): 10 mM),IRF Lucia reporter activity,RAW-Dual [1]; [4],0.592
same,IRF Lucia reporter activity,RAW-Dual [1]; agonist: LPS (TLR4) 0.1 ug/mL,1.25
COc1nc(N)nc2c1ncn2C1OC(CO)C(O)C1O (stereo unspecified),IRF Lucia reporter activity,RAW-Dual [2]; [5],1.03
COc1nc(N)nc2c1ncn2C1OC(CO)C(O)C1O (stereo unspecified) (library stock concentration (final ~1000-fold dilution): 10 mM),IRF Lucia reporter activity,RAW-Dual [1]; [4],1.08
same,IRF Lucia reporter activity,RAW-Dual [1]; agonist: LPS (TLR4) 0.1 ug/mL,1.09
CC1CCOC2Cn3cc(C(=O)NCc4ccc(F)cc4F)c(=O)c(O)c3C(=O)N12 (stereo unspecified) (library stock concentration (final ~1000-fold dilution): 10 mM),IRF Lucia reporter activity,RAW-Dual [1]; [4],1.13
same,IRF Lucia reporter activity,RAW-Dual [1]; agonist: LPS (TLR4) 0.1 ug/mL,1.24
